# Experimental data: the supplement of paper PMC10126150
# Values marked as one replicate rest on one cluster of the flow cell; about a third of the high ones do not repeat.
# Tested on: ATP
# Experiment: switch fluorescence ratio, 500 uM ATP over buffer (Cy3 cluster intensity, sum of 5 cycles each) (fold (ratio)); higher = stronger signal-on switching upon ATP binding; sequences stand for … in TCGTCGGCAGCGTCAGATGTGTATAAGAGACAGTTTTTTTTTTTTTTTTTTTTTTTTT…TC
# Settings: aptamer strand: ATP DNA aptamer (quencher-CACCTGGGGGAGTATTGCGGAGGAAGG + anchor), 100 nM annealed; ATP concentration: 500 uM; one replicate
# How it was run: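 The fluorescence ratio divides summed target-cycle Cy3 intensity by summed buffer-cycle Cy3 intensity for each cluster and is averaged per switch-domain sequence. Cy3-labelled switching-strand clusters on a modified Illumina MiSeq flow-cell were annealed to 100 nM quencher-labelled ATP aptamer, then imaged in selection buffer and again after 15 min with 500 uM ATP at 22 °C. Five such cycles were run, with NaOH stripping and re-annealing between them, and clusters outside 100-1000 RFU were excluded.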
# 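Further: ATP exposure 15 min at 22 °C before imaging.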
row,Sequence,switch fluorescence ratio
1,TTACTGGGAT,1.06
2,TTTAGTAATT,1.15
3,CGAATCCTTT,0.999
4,TTAGATATGA,0.998
5,TTCTCTGTCA,1.05
6,CTATTACACG,1.03
7,AAATTTTTA,1.01
8,TGCTGGAGTA,1
9,TTGGAGGCTG,0.991
10,GGAGAGCCTA,1.04
11,GATTCATCTG,1.04
12,CCATTTTCAA,1.19
13,GTCGGTCCAC,0.976
14,TGAAAAGGCT,1.06
15,TGGTTTTAAA,0.985
16,GAGTGTGCCA,1.03
17,GTGGATCTGC,1.01
18,TAGCAAAGGC,1.19
19,TCTATTAGGT,1.01
20,CAAGGGCGCC,1.02
21,TGATTTAGT,1.02
22,CAGAATCCGC,1.65
23,GATAGTTCTA,0.978
24,TCGCCAGAAT,0.998
25,ATAAATCTCA,1.02
26,AAACGTATGG,1

row,Sequence,switch fluorescence ratio
1,GAATGGTATT,1.02
2,CGGATAATTC,1.06
3,AATTGAGCCA,0.988
4,AAAATGGCT,1.05
5,ACAACGCCTC,1.27
6,CGGACGGCGT,0.948
7,CAGTGAAGT,0.988
8,CATTGTGGTT,1.01
9,TAGTTGTCGA,0.958
10,GTAGGCACGC,0.96
11,GCTATAGATG,1.02
12,TTAGTTGGCC,1.01
13,GGGATTCTAG,0.958
14,ACTCAGTTGG,1.01
15,TTTGCCAAGG,0.996
16,TACGGACGAG,1.04
17,ATTTAATCAT,0.972
18,AATTTAGCCT,1.12
19,TTCGGTCC,0.961
20,AAGGTATA,1
21,AGGGATGCAA,0.999
22,GGCAAGCCGT,1
23,GTGTATAATT,1.28
24,CAATCTCGTG,1.04
25,TATATCGACG,1.01
26,TGCAATAGCG,1.1

row,Sequence,switch fluorescence ratio
1,CTATGGGAC,1.03
2,ATTAAAGCTT,1
3,TGTTTTCAAG,0.996
4,ATCATAGTAG,1
5,ATCTGATCTT,1.03
6,AAAGTACATT,1.15
7,TTATATGGGC,0.97
8,GATGGCGCTA,0.933
9,CTGATGGA,1.03
10,GCCCACTAGA,1
11,TCGTGTCGTG,1.04
12,GTTAATAGGT,1.02
13,ATGGTCACGG,0.992
14,ACATTGACAA,1.05
15,AAGATGTGGA,1.01
16,GCTTGTGTGC,1.01
17,GGCCGTATAG,1.05
18,CTACACCGGG,1.19
19,GTTAGTTTTA,1.03
20,TGCTCACCAC,1.13
21,TGCCCCTGG,2.47
22,GATGGTCAGC,0.981
23,TACGGCCTAC,1.24
24,CGAGCTTGTT,1
25,TTAGCATTG,1.02
26,TCCTAAGTGA,1.24

row,Sequence,switch fluorescence ratio
1,TAACTCCCTT,1.57
2,GGCAAACAAG,1.04
3,TTTTCCTAGG,1.14
4,AAGGATGACA,1.04
5,TGATGCTATT,0.986
6,GAAGTGGCG,1.03
7,TTTTGTGCT,1.05
8,TTTGGTACAT,1.03
9,TCCACCGAGT,1.25
10,AGTCTGCCAG,0.991
11,GACGAAGTAT,1.05
12,TGGCGATTCA,0.957
13,TCAGGCCCGA,1.02
14,GGAGTTCAGC,0.956
15,ATGCAGTTTG,1
16,GGCACCCGGC,1.03
17,AATGTGGGAG,1.01
18,GATTGCGGAT,1.03
19,CGTATATGAA,1.01
20,TGTCATAAGA,0.998
21,TCGGTGTCGT,1.04
22,GGAGAGATCG,0.937
23,GATATACGGG,0.985
24,TCAGTGCAAC,1.01
25,CGTAGCGAAG,1.13
26,AATGGGTGTA,1.03

row,Sequence,switch fluorescence ratio
1,GGGGCCGGAT,1.12
2,TACGCAATTT,4.2
3,GGTAAGAAAT,0.987
4,CTGCGCCACG,1.13
5,GCAATAGGGA,1.43
6,AGTCAGCAA,4.79
7,AGCAAATCAG,0.972
8,GAACCTGTTG,1.03
9,GATAGGGTTA,0.99
10,TTGAATATGC,1.1
11,GCCGGGGTAA,0.95
12,AATTGAAGGT,0.954
13,AAAGGGCGAG,0.991
14,CGCGTCAAAG,1
15,GGCAGGAGG,0.994
16,GTGGAAA,0.992
17,GAATGATATT,0.994
18,CTTTTGAGTA,0.988
19,ACGGGGTACA,1.08
20,GACACTGAAG,1.03
21,AGGAGAATA,0.988
22,CCTGCCAGAG,1.28
23,AACTAGGCG,1.02
24,GCCTCTCGCC,1.63
25,GAAAAGTTGT,1.03
26,TAATGGGTT,1.07

row,Sequence,switch fluorescence ratio
1,GACTTTATGT,0.994
2,ACTCCTTTGT,1.04
3,TTAACGCAGT,1.03
4,ACACTTAAAA,0.991
5,TTCATAAGGA,0.981
6,AACAAAGCGC,1.05
7,ATGATTCAGG,1
8,ACGTAAGATT,1.11
9,AACGGGCTGA,0.999
10,CAGCTTTAGT,1.17
11,TTCGATCGGT,0.992
12,GATTCCCCAA,1.01
13,CGAACAAACT,1.02
14,CGACGGGTGG,1
15,GCCGCCTGCT,1.03
16,ACCCGTGTAT,1.03
17,GTGCTAGAAA,1.01
18,GGGTGACCGG,0.95
19,ACGGTTTAGT,0.998
20,ATATTTCTGC,1.07
21,CTTGTAAGCT,0.998
22,CAAGATGTCG,0.996
23,TGTGAGGTAC,1
24,GTCGCTTACA,0.995
25,CAGGGTACCT,1.02
26,TTGGGGTTC,1.05

row,Sequence,switch fluorescence ratio
1,AAAGAACAAA,0.994
2,AAGCAGGGC,1.01
3,CACGTGGAAA,1
4,GTCCTACAGT,1
5,TGGGAGGCCG,1.05
6,CATCAGGCGC,1.09
7,CGTATTAACG,1.03
8,TGTGTTTATC,1.03
9,TGGGTGGATT,0.994
10,GAGAGTTGGA,0.95
11,ACGTGTATCT,1.05
12,AGTAATTGCT,1.01
13,CATGCGGGAT,1.04
14,TGAACCGAG,1.25
15,GACCTGCT,1.02
16,GACTGTGCGT,1.01
17,AGTAGGAACT,0.971
18,ATGTGTTCGT,1.02
19,ATAAAAAATG,0.981
20,TTGCTTTCAC,0.997
21,TGAATTTCGG,0.968
22,AGGCTAGTCC,0.908
23,GAGTGCTTAC,1.07
24,TGGAGGTATT,1.23
25,GGCCATCCTG,0.984
26,TGAGGGAGTT,1.01

row,Sequence,switch fluorescence ratio
1,ATCGCGGTCA,1.02
2,TTTCATTAGC,1.04
3,TCTAGCTACT,1.13
4,TCATGATAAA,0.959
5,ATCTAGTCCG,1.03
6,GCCGGGAGAA,1.27
7,ATATTCCCGT,1.05
8,TATCGGCATC,1.04
9,CTGTGTTTAG,0.974
10,TTTTCCACCA,1.02
11,TTTATTGAAA,1.03
12,CGGGCCGTGG,1.01
13,GTGGAAAACT,1.01
14,TGACGGCCCT,1
15,GCCCCGGACA,1.05
16,TTGTATGACT,1.33
17,GGGTACAGAA,1.01
18,TTAACATCGC,1.06
19,AGAAGATCCC,1.03
